The full ranking holds about 33,000 sequences; the median of “E-score (-0.5 to 0.5)” is about -0.016, and the highest 2% start at about 0.31. This is one part of the list.
Target: Cst6 (UniProt P40535)
Test: PBM E-score (8-mer binding enrichment) (E-score (-0.5 to 0.5)); higher = stronger / more preferred TF binding; most listed sequences are background and not binding sites
Conditions: protein concentration: 200 nM; construct: GST-DNA-binding domain
Procedure, shortened: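 Yeast transcription factors, full-length or as DNA-binding domains, were expressed with a GST tag using PURExpress in vitro transcription/translation. At about 100-200 nM they were applied to universal all-10-mer Agilent arrays, double-stranded by primer extension on fresh or once-stripped slides. Fluorescent anti-GST detected bound protein, and masliner normalised the scans. E-scores for ungapped eight-base words, pooled with reverse complements, came from the Universal PBM Analysis Suite.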

| Sequence | PBM E-score |
| --- | --- |
| ATGTCTTA | 0.133 |
| CCAGCTAA | -0.157 |
| CGAACGGA | 0.043 |
| CACATGAC | 0.254 |
| AATAATGT | 0.181 |
| AAAAGCTG | -0.0375 |
| ACAAACAT | 0.146 |
| AAACCTGT | 0.0282 |
| ACTAGCAT | -0.168 |
| ACATATTC | 0.231 |
| CAGACGGA | -0.0552 |
| CGCATACC | 0.117 |
| AAGGCATG | 0.0974 |
| AGGCGTAA | 0.095 |
| CCTTCTCC | -0.341 |
| CCAACGTC | -0.022 |
| CTCAATTA | 0.109 |
| CGACACGA | 0.0473 |
| AACGAAGC | 0.0542 |
| ACCTGCAT | -0.0443 |
| CTAATAAG | 0.00507 |
| ATCCTCAT | -0.0203 |
| AGGCAGTC | -0.0638 |
| GGTCCGCA | -0.0844 |
| AAGGATTA | -0.0508 |

| Sequence | PBM E-score |
| --- | --- |
| GTACATTA | 0.201 |
| AGGTTGAC | 0.0459 |
| AACTTGCG | 0.0436 |
| ATCAGACA | -0.00162 |
| CTAGTTAC | 0.0299 |
| AGCAACCG | -0.174 |
| CATCAGGG | -0.0573 |
| AACGGGCT | -0.296 |
| GGTGATTA | 0.206 |
| ACCCTCCA | -0.28 |
| AATCGGCC | -0.117 |
| CCGATCCA | -0.0479 |
| AAAGTTTC | 0.0152 |
| GAGTCGCA | -0.285 |
| CAGGTGAG | -0.282 |
| GGCAATGA | 0.207 |
| CACGCTGG | -0.133 |
| CAAGTACA | -0.116 |
| CTGACTTC | -0.0605 |
| GGCCCCAC | -0.244 |
| CACACTAC | -0.0388 |
| AATTTAAC | 0.249 |
| CCGTATCC | -0.0302 |
| CATGTGCC | 0.00406 |
| ATCCACGG | 0.0444 |

| Sequence | PBM E-score |
| --- | --- |
| GTCCCGTA | -0.0814 |
| GTCAAACA | 0.123 |
| CCCATGGC | -0.231 |
| AATTTGCA | 0.0546 |
| GCGTAACA | 0.195 |
| AGTTTGTG | -0.0842 |
| CTCATGAA | 0.158 |
| ATAAACAA | 0.261 |
| CAGGGGCA | -0.121 |
| CTCCTTCA | -0.294 |
| AGGGATAT | -0.165 |
| ACCCCGTG | -0.0651 |
| CGTAATAC | 0.366 |
| CCGCTGGA | -0.117 |
| ATTATTCG | 0.235 |
| CGAGCGAG | 0.165 |
| GTAAGGAA | -0.0373 |
| GTAGCATA | 0.0646 |
| TTAAAAAA | 0.306 |
| AACGCACG | 0.179 |
| GAATCTGA | -0.108 |
| TCACACAA | 0.0912 |
| ACAATTTA | 0.204 |
| AATCCCGG | -0.223 |
| GGCAGCAA | -0.0802 |

| Sequence | PBM E-score |
| --- | --- |
| ACACCCTC | -0.27 |
| ATGCGACA | 0.0988 |
| GGCCGGCC | -0.227 |
| GCGAACGA | -0.009 |
| CTTCTGCA | 0.0581 |
| CTCCAGGC | -0.193 |
| CTTGCGGC | -0.0317 |
| CGGCAGCC | -0.158 |
| AATCTTAC | 0.279 |
| AGTCCATA | -0.0525 |
| GATCCGAC | -0.146 |
| ACTCGGCT | -0.151 |
| CATGGTGG | -0.268 |
| CGTATTCC | 0.171 |
| GCAGACCC | -0.299 |
| CTTTCCAA | 0.0651 |
| AAGCACAT | -0.0897 |
| AACTCGGA | -0.116 |
| AGACGTCA | 0.484 |
| AAGTTTGA | 0.0584 |
| CACGAGCC | -0.163 |
| ACGTCCGA | -0.039 |
| AGTCTTAC | 0.0422 |
| AGCTTGCA | 0.0382 |
| AAGATGTC | 0.0357 |

| Sequence | PBM E-score |
| --- | --- |
| AATCGTGT | -0.0469 |
| AGGGGGAG | -0.445 |
| AGCCGTTG | 0.0249 |
| ACTGAAGA | 0.214 |
| ATCTGAAT | 0.128 |
| CCGTTGCC | -0.258 |
| CCCGGCGC | -0.176 |
| CACCGAAA | 0.116 |
| CTCACAGC | 0.0123 |
| ACCAATTG | 0.0868 |
| ATCTGCGG | 0.0732 |
| AAATCCTA | 0.0429 |
| AGAACCGG | -0.163 |
| ACGCCTCC | -0.0928 |
| ATCCCCAG | -0.195 |
| ACCCGACG | -0.106 |
| CATAGGAG | -0.0603 |
| ACTAACCA | 0.0689 |
| GCGCCTAA | 0.106 |
| AGAGATTA | 0.166 |
| TCAGGCCA | -0.092 |
| AGTGTTAG | -0.00863 |
| AGTCATTG | 0.0787 |
| CCACGGCA | 0.235 |
| TAAGGCAA | 0.105 |

| Sequence | PBM E-score |
| --- | --- |
| ATACCTTA | 0.0235 |
| AGATACCA | 0.117 |
| AGCGGAAA | 0.062 |
| ACTCTCAT | -0.0608 |
| CCATGTAA | 0.0285 |
| GGCTGTCA | -0.152 |
| ACAGGGAG | -0.0732 |
| CCGAACTC | -0.109 |
| AGTGCAGG | -0.117 |
| GGGGTTAC | -0.15 |
| CTTGGACC | -0.372 |
| CGGGAATA | 0.0392 |
| AGCAGAAC | -0.0649 |
| GACCATAC | -0.0669 |
| GGCGACCC | -0.387 |
| CGTATTGC | 0.0567 |
| ACGTTGGC | -0.103 |
| GACTGGTA | -0.111 |
| AGCACTTG | -0.262 |
| AAACGCAG | 0.00743 |
| AAGTTCAG | -0.0271 |
| CGCTGACC | -0.0695 |
| AGTTAAGA | 0.161 |
| ACCTTCCC | -0.261 |
| CTAGCACC | -0.105 |

| Sequence | PBM E-score |
| --- | --- |
| CAAGTGTA | -0.0263 |
| GCGCGCAA | 0.0621 |
| CTACTATA | 0.0554 |
| ACAAGGAA | 0.0873 |
| ACAATCCC | -0.0598 |
| AAGTTGGT | 0.0462 |
| AGTACTCA | -0.0616 |
| GTACCGGA | -0.0963 |
| GGGGGTTA | -0.335 |
| CCGGGATA | -0.0818 |
| CGCCGTCC | 0.249 |
| CTATGTGC | 0.0139 |
| CGGGCGAC | -0.319 |
| AGTCGTGA | -0.0872 |
| CCGGTCTC | -0.364 |
| AGCATGCG | 0.0753 |
| ACTAGAGA | -0.0352 |
| AGCGTGGC | -0.15 |
| CTGTCGGC | -0.198 |
| CCAGCTGC | -0.302 |
| GATTTGAC | 0.148 |
| AATCTATG | 0.151 |
